Sequences and labels used below:
B1: PhoQ; a variant is named by its letters at X, in order, P23837 (parent)
chain: MKKLLRLFFPLSLRVRFLLATAAVVLVLSLAYGMVALIGYSVSFDKTTFRLLRGESNLFYTLAKWENNKLHVELPENIDKQSPTMTLIYDENGQLLWAQRDVPWLMKMIQPDWLKSNGFHEIEADVNDTSLLLSGDHSIQQQLQEVREDDDDAEMTHSVAVNVYPATSRMPKLTIVVVDTIPVELKSSYMVWSWFIYVLSANLLLVIPLLWVAAWWSLRPIEALAKEVRELEEHNRELLNPATTRELTSLVRNLNRLLKSERERYDKYRTTLTDLTHSLKTPLXXLQXXLRSLRSEKMSVSDAEPVMLEQISRISQQIGYYLHRASMRGGTLLSRELHPVAPLLDNLTSALNKVYQRKGVNISLDISPEISFVGEQNDFVEVMGNVLDNACKYCLEFVEISARQTDEHLYIVVEDDGPGIPLSKREVIFDRGQRVDTLRPGQGVGLAVAREITEQYEGKIVAGESMLGGARMEVIFGRQHSAPKDE

Some of the results follow.

The variants in the experiment derive from B1. Nature of the experiment: enrichment ratio after two sorts for PhoP signalling (ratio (wild type AVST 3.29)); higher = more functional. Particulars: with PhoP (E. coli).
As to HPFN, the enrichment ratio was no more than 0.25.

Take EFHQ: the enrichment ratio was no more than 0.25.

For the variant YVYV, the enrichment ratio is no more than 0.25.

SSHN: the enrichment ratio is no more than 0.25.

On to KSQK, for which the enrichment ratio was no more than 0.25.

For the variant THFF, the enrichment ratio is no more than 0.25.

Regarding SYLE, the enrichment ratio is no more than 0.25.

Consider DQPH, for which the enrichment ratio is no more than 0.25.

Regarding LRSI, the enrichment ratio was no more than 0.25.

Take WLYN: the enrichment ratio was no more than 0.25.

Regarding MSTF, the enrichment ratio is no more than 0.25.

Regarding FFPR, the enrichment ratio is no more than 0.25.

Take LQLF: the enrichment ratio was no more than 0.25.

Turning to VHPH, the enrichment ratio was no more than 0.25.

Take MQHK: the enrichment ratio is no more than 0.25.

Turning to YKIT, the enrichment ratio is no more than 0.25.

Take SCML: the enrichment ratio was determined as 11.2.

For the variant ISWK, the enrichment ratio was no more than 0.25.

In the case of YNQS, the enrichment ratio was no more than 0.25.

QAYH: the enrichment ratio was no more than 0.25.

Take YARR: the enrichment ratio was no more than 0.25.

Consider TGQN, for which the enrichment ratio was 8.68.

With VAPE, the enrichment ratio is no more than 0.25.

Take TTVC: the enrichment ratio was determined as 1.8.

As for RYDW, the enrichment ratio is no more than 0.25.

For NNWS, the enrichment ratio is no more than 0.25.

With QDIS, the enrichment ratio was no more than 0.25.

Regarding LRAC, the enrichment ratio was no more than 0.25.

On to YDRP, for which the enrichment ratio is no more than 0.25.

Turning to MDCV, the enrichment ratio was no more than 0.25.

Turning to YNWR, the enrichment ratio was no more than 0.25.

For the variant YRIM, the enrichment ratio was no more than 0.25.

In the case of MFWH, the enrichment ratio was no more than 0.25.

For DWGE, the enrichment ratio is no more than 0.25.

FTCK: the enrichment ratio is no more than 0.25.

Take YCVI: the enrichment ratio is no more than 0.25.

On to YRRP, for which the enrichment ratio was no more than 0.25.

Regarding APMW, the enrichment ratio is no more than 0.25.

Regarding ILML, the enrichment ratio is no more than 0.25.

For the variant VQVF, the enrichment ratio is no more than 0.25.

With KHPK, the enrichment ratio is no more than 0.25.

Take GCSH: the enrichment ratio was no more than 0.25.

On to TEMV, for which the enrichment ratio came to 20.2.

On to DEMF, for which the enrichment ratio is no more than 0.25.

Regarding VNKF, the enrichment ratio was no more than 0.25.

As to FLNM, the enrichment ratio was no more than 0.25.

On to TCYI, for which the enrichment ratio turned out to be 1.36.

In the case of MREH, the enrichment ratio is no more than 0.25.

As to DRMY, the enrichment ratio was no more than 0.25.

Consider AFHH, for which the enrichment ratio was no more than 0.25.

With EHCG, the enrichment ratio was no more than 0.25.

With KHGL, the enrichment ratio was no more than 0.25.

In the case of PPHL, the enrichment ratio was no more than 0.25.

Turning to VTAH, the enrichment ratio was no more than 0.25.

Consider MQCL, for which the enrichment ratio turned out to be 1.47.

Consider FYRH, for which the enrichment ratio is no more than 0.25.

Take WTHT: the enrichment ratio was no more than 0.25.

With HRFE, the enrichment ratio is no more than 0.25.

For the variant YSNR, the enrichment ratio was no more than 0.25.

In the case of KSRR, the enrichment ratio was no more than 0.25.

With DIGY, the enrichment ratio is no more than 0.25.

On to DFLK, for which the enrichment ratio is no more than 0.25.

Consider MACF, for which the enrichment ratio was no more than 0.25.

Consider VSTG, for which the enrichment ratio was no more than 0.25.

SYYY: the enrichment ratio was no more than 0.25.

As to ASAW, the enrichment ratio was no more than 0.25.

With HRGI, the enrichment ratio was no more than 0.25.

With ANKL, the enrichment ratio was no more than 0.25.

Consider AIYC, for which the enrichment ratio is 0.353.

With MFKL, the enrichment ratio was no more than 0.25.

As for ATAM, the enrichment ratio is no more than 0.25.

Turning to AGIW, the enrichment ratio was no more than 0.25.

Take PIPY: the enrichment ratio was no more than 0.25.

As to HQET, the enrichment ratio was no more than 0.25.

In the case of TKFA, the enrichment ratio is no more than 0.25.

As to DCNE, the enrichment ratio is no more than 0.25.

With PVVW, the enrichment ratio is no more than 0.25.

For the variant SSQW, the enrichment ratio was no more than 0.25.

As for YWRD, the enrichment ratio was no more than 0.25.

Take ASRM: the enrichment ratio was no more than 0.25.

For the variant DPRW, the enrichment ratio was no more than 0.25.

For the variant AWKG, the enrichment ratio is no more than 0.25.

As to HQDH, the enrichment ratio was no more than 0.25.

Turning to MSYF, the enrichment ratio is 6.68.

Regarding AIAC, the enrichment ratio is 19.1.

Turning to WSNM, the enrichment ratio is no more than 0.25.

As to FPGF, the enrichment ratio was no more than 0.25.

As for SFNN, the enrichment ratio is no more than 0.25.

For the variant NHNK, the enrichment ratio is no more than 0.25.

Regarding RHVK, the enrichment ratio is no more than 0.25.

For the variant YTSY, the enrichment ratio is no more than 0.25.

KQLA: the enrichment ratio was no more than 0.25.

Consider NWMI, for which the enrichment ratio was no more than 0.25.

In the case of HAWY, the enrichment ratio was no more than 0.25.

As for MGQH, the enrichment ratio was no more than 0.25.

As to DQMT, the enrichment ratio is no more than 0.25.

For the variant VWNY, the enrichment ratio was no more than 0.25.

In the case of RHFN, the enrichment ratio was no more than 0.25.

On to HLAW, for which the enrichment ratio is no more than 0.25.

Consider PILF, for which the enrichment ratio is no more than 0.25.

KGVV: the enrichment ratio is no more than 0.25.

Turning to KRES, the enrichment ratio is no more than 0.25.

Regarding SDIR, the enrichment ratio was no more than 0.25.

Turning to QETF, the enrichment ratio is no more than 0.25.

Take MALD: the enrichment ratio is no more than 0.25.

YQVW: the enrichment ratio was no more than 0.25.

Consider GKFA, for which the enrichment ratio was no more than 0.25.

As for KNYL, the enrichment ratio is no more than 0.25.

On to MDLS, for which the enrichment ratio is no more than 0.25.

On to QFKS, for which the enrichment ratio was no more than 0.25.

Turning to FGWH, the enrichment ratio is no more than 0.25.

On to YARV, for which the enrichment ratio was no more than 0.25.

As for LTCH, the enrichment ratio was no more than 0.25.

Regarding WVVY, the enrichment ratio is no more than 0.25.

With ASAQ, the enrichment ratio was 4.22.

In the case of MEPN, the enrichment ratio was no more than 0.25.

On to RKDS, for which the enrichment ratio was no more than 0.25.

Consider YVCN, for which the enrichment ratio is no more than 0.25.

Turning to EPII, the enrichment ratio was no more than 0.25.

As for PTMF, the enrichment ratio is no more than 0.25.

In the case of KYFT, the enrichment ratio is no more than 0.25.

In the case of VPRS, the enrichment ratio was no more than 0.25.

As to NRTN, the enrichment ratio was no more than 0.25.

PVYM: the enrichment ratio is no more than 0.25.

Regarding HQHT, the enrichment ratio was no more than 0.25.

Turning to AAMQ, the enrichment ratio was no more than 0.25.

Take RIQA: the enrichment ratio was no more than 0.25.

For DRFG, the enrichment ratio was no more than 0.25.

Consider HFTF, for which the enrichment ratio is no more than 0.25.

Regarding YIWC, the enrichment ratio was no more than 0.25.

Regarding FSYF, the enrichment ratio was no more than 0.25.

For IRLC, the enrichment ratio is no more than 0.25.

As for YDEN, the enrichment ratio is no more than 0.25.

For the variant DKLG, the enrichment ratio is no more than 0.25.

KLHF: the enrichment ratio is no more than 0.25.

Regarding MEPG, the enrichment ratio was no more than 0.25.

Consider SNWW, for which the enrichment ratio is no more than 0.25.

As for WDPF, the enrichment ratio is no more than 0.25.

Consider LDFS, for which the enrichment ratio was no more than 0.25.

Turning to GDSL, the enrichment ratio is no more than 0.25.

As for TINN, the enrichment ratio was determined as 12.6.

For ILWF, the enrichment ratio is no more than 0.25.

On to IAMM, for which the enrichment ratio stood at 13.5.

Consider FSHS, for which the enrichment ratio was no more than 0.25.

Turning to QCYR, the enrichment ratio was no more than 0.25.

Regarding QDVV, the enrichment ratio is no more than 0.25.

Regarding TESW, the enrichment ratio turned out to be 2.87.

Take SHYI: the enrichment ratio was no more than 0.25.

With PCRG, the enrichment ratio was no more than 0.25.

Consider LHND, for which the enrichment ratio is no more than 0.25.

In the case of ERMV, the enrichment ratio is no more than 0.25.

WKSS: the enrichment ratio was no more than 0.25.

HSHA: the enrichment ratio was no more than 0.25.

For the origin of these results see a collection of fitness landscapes (doi:10.1126/science.1257360).
